The results in this text go back to the supplement of paper PMC4604168 (melanoma cell lines).

Structures are written as SMILES. The list shows a part of the results. Most values come without repeats; read them as rough.
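Note: cells treated in 1,536-well plates, then fixed and DAPI-stained, with nuclei counted from automated high-throughput microscope images.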

This assay deals with A375. The assay can be described thus: cell count relative to DMSO control; melanoma cells; higher = more viable cells. Particulars: library dose: standard library concentration; 72 h.
Take `Cc1cc(N2CCOCC2)cc2[nH]c(-c3c(NC[C@@H](O)c4cccc(Cl)c4)cc[nH]c3=O)nc12` + O=C(Nc1cccc(Cl)c1)Nc1ncc(CCNc2ncnc3ccsc23)s1 [SNS314] (first compound 1 µM, partner dose 0.004 µM): the cell count was determined as 82%.

For the compound `Cn1nnc2c(C(N)=O)ncn2c1=O` [temozolomide] + Cn1cncc1[C@@](N)(c1ccc(Cl)cc1)c1ccc2c(c1)c(-c1cccc(Cl)c1)cc(=O)n2C [tipifarnib] (first compound 10 µM, partner dose 0.05 µM), the cell count worked out at 109%.

On to `Cc1cc(N2CCOCC2)cc2[nH]c(-c3c(NC[C@@H](O)c4cccc(Cl)c4)cc[nH]c3=O)nc12` + COc1cc2c(Oc3ccc4[nH]c(C)cc4c3F)ncnc2cc1OCCCN1CCCC1 [cediranib] (first compound 1 µM, partner dose 2 µM), for which the cell count is 110%.

`O=C(Nc1cc(C(F)(F)F)cc(C(F)(F)F)c1)c1cc(Cl)ccc1O` + COc1ccc(-c2ccc3c(N4CCOCC4)nc(N4C[C@@H](C)O[C@@H](C)C4)nc3n2)cc1CO [KU0063794] (first compound 0.08 µM, partner dose 0.1 µM) registered a cell count of 117%.

In the case of `O=C(O)[C@@H]1[O][Sb](=[O])([O][Sb]2(=[O])[O][C@H]([C@H](O)CO)[C@H](O)[C@H](C(=O)O)[O]2)[O][C@H]([C@H](O)CO)[C@@H]1O` (some centres not stated) [stibogluconate] + NC(=O)Nc1cc(-c2cccc(F)c2)sc1C(=O)N[C@H]1CCCNC1 [AZD7762] (first compound 10 µM, partner dose 0.1 µM), the cell count was determined as 60.9%.

As for `Cc1cc(N2CCOCC2)cc2[nH]c(-c3c(NC[C@@H](O)c4cccc(Cl)c4)cc[nH]c3=O)nc12` + CC(C)CCN1c2nc(Nc3cc(F)c(O)c(F)c3)ncc2N(C)C(=O)C1C [BID1870] (first compound 1 µM, partner dose 1 µM), the cell count was determined as 99.4%.

Turning to `O=C(O)c1ccc2c(c1)nc(Nc1cccc(Cl)c1)c1ccncc12` + CCCS(=O)(=O)Nc1ccc(F)c(C(=O)c2c[nH]c3ncc(Cl)cc23)c1F [PLX4720] (first compound 2 µM, partner dose 0.4 µM), the cell count worked out at 58.5%.
